Data taken from the supplement of paper PMC11417369.
± gives the standard deviation of the averaged measurements. This is one part of the list.

What follows are sequences tested on PfAP2-LT AP2 domain (GST-tagged) (assay: gcPBM binding intensity (ln(normalized median fluorescence intensity)); higher = stronger DNA binding).
Outline: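 Binding of GST-tagged P. falciparum DNA-binding domains, expressed in E. coli and used at about 25 μg on average, was carried out for 1 h in 1× PBS containing 1% milk, 0.2 mg/ml BSA, 0.5% salmon testes DNA and 0.03% Triton X-100. The target was an Agilent 4 × 180k array of primer-extended double-stranded 36-bp intergenic genomic probes plus negative controls, read with Alexa488 anti-GST antibody at 488 nm. Binding intensity is the highest Masliner-normalised natural-log median intensity across replicate spots of either probe orientation.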

| Sequence | gcPBM binding intensity (ln) |
| --- | --- |
| TTTATAAACAAATGAACACACAAACATATTTATATA [CACACA_site7478] | 8.86 ± 0.42 |
| TATTTAAAGATATATACACACATTTGATATTATTAT [CACACA_site6509] | 8.85 ± 0.4 |
| CACACGTAAAAGTATAATATAAAAAAGGTATACACT [CACACA_negctrl_site127] | 8.93 ± 0.45 |
| TTTATAATAAAAAATACATGCAGTTATATATAATAA [TGCATGCA_site654] | 8.54 ± 0.49 |
| ATATTGAAAATTTGAAGTACATCTAAATATATTATT [XGTACX_site7817] | 8.44 ± 0.45 |
| ATCCGTGTCTGAAATACACACATGACAATGTGAATG [CACACA_site6556] | 8.97 ± 0.3 |
| TATATATAAATAAACACACACAAATATAATAAAAAA [CACACA_site3526] | 9.39 ± 0.44 |
| ATAATGTGTTTGGTATTCTTGATAGATAGTTTTGTG [CACACA_negctrl_site68] | 8.86 ± 0.41 |
| CCTTCCTTGAATTTTACATGCAAAAAATTATAAAAC [TGCATGCA_site663] | 8.4 ± 0.31 |
| TATATATTATATATTTGTACATATATATAAAAACTT [XGTACX_site449] | 8.53 ± 0.44 |
| TTATTAAAATATACATTTGAAAGTAATCTTATTTAA [XGTACX_negctrl_site431] | 8.1 ± 0.38 |
| TTTTTTCAATATTATATCCAAAAATATTTGTAAATA [TGCATGCA_negctrl_site596] | 8.05 ± 0.48 |
| ATTTTTATTTTTTTTGTGCACATTTTCATTTTCTAT [GTGCAC_site9580] | 9.24 ± 0.51 |
| TATAAAAAAATAATAAAATAATAAAATATATAAATA [TGCATGCA_negctrl_site394] | 8.55 ± 0.55 |
| TTTTAAAAGGTAAAATGTACATATATAATATATACA [XGTACX_site1222] | 8.63 ± 0.45 |
| ATTCTATTATCCTTTGCACACAAAATAAATGAAAAA [CACACA_site3030] | 8.8 ± 0.33 |
| TAATACTTAGAGAAAAGTACGTATGAACTTATGTAA [XGTACX_site5504] | 8.59 ± 0.52 |
| TTTTTTTTTTTTTTTTGTACTTATAAAATAACATGT [XGTACX_site134] | 8.41 ± 0.31 |
| AAACATTTATGAAGGTGTACAAAAATGAATTAAAAA [XGTACX_site7035] | 8.79 ± 0.52 |
| TATTTAAATACTGACGCATGCATAAGGAGTAATAGT [TGCATGCA_site465] | 9.23 ± 0.31 |
| AGTCCTTACACATATATTAAATATGTGTATATATAT [XGTACX_negctrl_site336] | 9.16 ± 0.32 |
| TTTTGTTTAGTGTATTGTACAATATATCTTTATTTT [XGTACX_site5163] | 8.92 ± 0.48 |

| Sequence | gcPBM binding intensity (ln) |
| --- | --- |
| AAAAAAAAAAAAAAAAGTACATATATATATATAATT [XGTACX_site4437] | 8.72 ± 0.52 |
| TATTAATACGGACACACACACACACTAGATAAAATA [CACACA_site4295] | 10.1 ± 0.11 |
| TAATTAAATACATTAACACACACACTAATATATACA [CACACA_site8938] | 9.55 ± 0.17 |
| TTCCTGTTAATTACAACACACAATTTTTATTTTATG [CACACA_site779] | 8.95 ± 0.54 |
| TAAAAGTTTTTATACATACACACCTATAAATTAAGT [CACACA_site2446] | 8.72 ± 0.36 |
| CTTTATTATAAGATTACACACATGTCTTATAATTTA [CACACA_site5715] | 9.02 ± 0.42 |
| AAAATAAAAATAAAAGCACACATAAATATATATATA [CACACA_site8409] | 9.13 ± 0.38 |
| TACCAAAAAAAAAAAAATAAAAATAAAAAAAAAAAT [CACACA_negctrl_site1714] | 8.58 ± 0.64 |
| TAACTATTATAAAAATGTACAAATGAAAATATTTTT [XGTACX_site1438] | 8.54 ± 0.47 |
| AAAATTAAAACCTACACACACATTTAAAAAAAAAAA [CACACA_site3068] | 9.29 ± 0.37 |
| ATTTTTTTGGTAATTTGTACATAATATATACATAAT [XGTACX_site3742] | 8.79 ± 0.47 |
| TATATTTATTTAAAAACATGCATTTTTTTTTTCCGT [TGCATGCA_site44] | 8.57 ± 0.49 |
| TTTTTTTTTTTTACATGTACTTATTTTAAATATAAA [XGTACX_site805] | 8.71 ± 0.41 |
| ATATATTTATAGACTTGTACATATATATACGATATA [XGTACX_site8890] | 8.83 ± 0.26 |
| TATATTATAGGTTGTGTACACATATTATATAGTACT [CACACA_site4583] | 8.99 ± 0.41 |
| AAGGCATGACTATCTGCACACATAAAAATAAGAAAT [CACACA_site8180] | 9.43 ± 0.45 |
| TAAAAAAAAATATAATGTACGTATAAATATATATTA [XGTACX_site5085] | 8.62 ± 0.5 |
| TAAACATAATAATATACACACATATATTGATATATA [CACACA_site2144] | 8.93 ± 0.35 |
| AATTTTTTTTTTTTGTGTCCTCATAATTCTTCATTC [XGTACX_site5042] | 8.67 ± 0.58 |
| ATCTTTCCTTTTGCATGTACATATGGAAATACTTTT [XGTACX_site6995] | 9.01 ± 0.4 |
| ATAATTAAGTTATGTGTGCACTGTTAAAAATAAATG | 9.1 ± 0.44 |
| TATATATATATAAACGCATGTAATTTATACACACAT [TGCATGCA_site946] | 9.27 ± 0.29 |

| Sequence | gcPBM binding intensity (ln) |
| --- | --- |
| ATACACATAACATATATATATATATATATATATATC [CACACA_negctrl_site278] | 9.57 ± 0.45 |
| AATATAATATCTATAATATAAAAAAAACAAAAAAAA [CACACA_negctrl_site875] | 8.52 ± 0.65 |
| TTTTATGATATTTACACACAAACGTGAGATAGCTCA [CACACA_site2311] | 8.85 ± 0.31 |
| TTTTTTATTTTTTACATATTTAGCTCATATTTATAT [GTGCAC_negctrl_site491] | 8.85 ± 0.56 |
| AAAATATGTTAATATTGTACTTAAATAAAAAAAATA [XGTACX_site7152] | 8.47 ± 0.42 |
| ATTCTTAAAATAAAATGTACGAAAAAAAAAAAAAAA [XGTACX_site1657] | 8.42 ± 0.41 |
| ATAAATCGATAAAATATATGCTACATGAATAAATAA [XGTACX_negctrl_site604] | 8.82 ± 0.4 |
| TTTAAAAAATTATATTCACACACATACACATATATA [CACACA_site8076] | 9.23 ± 0.4 |
| TAAAAGGATACATATACACACATATATATATATATA [CACACA_site2791] | 9.72 ± 0.13 |
| ATATTTTTATATAATGAACACACATATTATATCATT [CACACA_site8446] | 8.88 ± 0.45 |
| TTCTTCAACAAAAAAATAAAAATAAAATAATAAAAA [GTGCAC_negctrl_site619] | 8.36 ± 0.49 |
| TATTTTCCATGAGGTAGTACACATTAAAAAATCGTT [XGTACX_site6887] | 8.52 ± 0.34 |
| TAAGCGTTTTTTAAAACACACATAAGAACTAAATGA [CACACA_site1670] | 8.66 ± 0.47 |
| TTTCTTAAACCGTACAGTACACACCTTTATAATGTT [XGTACX_site434] | 8.98 ± 0.49 |
| TTACACCTTAGGATCTGTACAAATATATGACAAATC [XGTACX_site4333] | 8.67 ± 0.31 |
| TAATATTAAAAAGAGACACACAAAAATATTAAAAAA [CACACA_site3120] | 8.81 ± 0.59 |
| AAGGTTTTGGGTTTTAATTAATTTAATATGATTATA [XGTACX_negctrl_site147] | 8.58 ± 0.23 |
| ATATTAAATATATACAGTACACATTACAATACAATA [XGTACX_site3221] | 8.98 ± 0.45 |
| CTTTGTAGTTGGTCCACACACATATCTGGAAGAATA [CACACA_site4834] | 8.98 ± 0.46 |
| TAGATGTATTTTTAAAGTACTTTTTAATATATAATC [XGTACX_site1431] | 8.38 ± 0.36 |
| AGAATTATATACACAAGTACATAATGACATATATAT [XGTACX_site5617] | 8.99 ± 0.44 |
| TAAAAAATTATATTCACACACATACACATATATATA [CACACA_site545] | 9.29 ± 0.29 |

| Sequence | gcPBM binding intensity (ln) |
| --- | --- |
| TTACAATATAATAAATGTACATATAACAAATATATA [XGTACX_site2199] | 8.77 ± 0.44 |
| CGACTTTTAAAATATACACACATATAAATAAATATA [CACACA_site6523] | 8.79 ± 0.42 |
| TTTTTTTTTTTTTGTAGTACATACTATTTTATTAAT [XGTACX_site950] | 8.64 ± 0.52 |
| TATATATGCATTAAAGTGTTTTTTTTTTTTTTTTTT [CACACA_negctrl_site1353] | 8.79 ± 0.3 |
| ATGTGTATATGTTAATGTACAAATTTTGAAAATGCC [XGTACX_site2685] | 9.01 ± 0.41 |
| TTAAAAAATATATACGTTGATATAATACAACTTGAC [CACACA_negctrl_site1551] | 8.6 ± 0.45 |
| TGTATAACCATAAATTGTACAGAAAAAAGTATAAAA [XGTACX_site1493] | 8.79 ± 0.47 |
| ATTTTTTTTTTTTATGGTACACACACGCGTATGGTT [XGTACX_site3888] | 9.57 ± 0.45 |
| CATCTGGTATCTAATAGTACATATATATAATATCTT [XGTACX_site2774] | 8.86 ± 0.4 |
| AACAAAAGAAAAAAATATATATATTCGTCCTATTTT [CACACA_negctrl_site444] | 8.63 ± 0.47 |
| TTTCAACTTTTGTCATGTACACATAATTTTATTGCA [XGTACX_site6701] | 8.96 ± 0.49 |
| ATTTATTTATCAAATATTATCTTAAAAAAAAAAGAA [CACACA_negctrl_site1345] | 8 ± 0.47 |
| ATACCAATAATATACATACACACATAAAGGTTTATA [CACACA_site314] | 9.17 ± 0.45 |
| AAGAAAAACTAAAGAGTTCTGTTCATATCTCTTTGG [TGCATGCA_negctrl_site549] | 8.67 ± 0.37 |
| TAATTCTTTATAATAACACACATTCATATACAATAA [CACACA_site2499] | 8.62 ± 0.41 |
| GGTATTACCTGTTTGTTATGTAGATGTTGCTAGGAT [GTGCAC_negctrl_site736] | 8.89 ± 0.45 |
| ACTTAAATAATACATACACACATGTACATACAGAAA [CACACA_site1595] | 9.16 ± 0.38 |
| TATTTATATAGACACACACACATATATTTATATTTT [CACACA_site7240] | 9.39 ± 0.18 |
| TTTACATTTAATAAAAGTACTTATTTCATATACATA [XGTACX_site659] | 8.47 ± 0.43 |
| TATATCAAATTCTAAACATGCACAAAAAACTTATAA [TGCATGCA_site510] | 8.55 ± 0.36 |
| AAGGAAAAACCATTCGCACACACACCGAATATATAA [CACACA_site8403] | 9.55 ± 0.38 |
